Data on 31 molecules can be found in the antibiotic and cytotoxicity screens of Wong et al. (2023).

The list shows a part of the results.

For this experiment, the system named is S. aureus RN4220. The experiment can be described thus: growth inhibition call (relative growth <= 0.2). Particulars: 50 µM.
Take `COc1ccc(NC(=O)Nc2ccc3c(c2)C(=O)N([C@@H](C)CO)C[C@@H](C)[C@H](CN(C)S(=O)(=O)c2cn(C)cn2)O3)cc1`: the growth inhibition call was “inactive”. To `CC(C)N1CC[C@@H](CN(C)Cc2ccc(C(=O)O)cc2)Oc2cc(-c3ccc(C(F)(F)F)cc3)ccc2S1(=O)=O` belongs “inactive”; to `COCC#Cc1ccc2c(c1)O[C@@H](CN(C)S(=O)(=O)c1ccc(F)cc1)[C@@H](C)CN([C@H](C)CO)S2(=O)=O`, “inactive”; to `Cc1noc(C)c1NC(=O)N(C)C[C@H]1Oc2ccc(NC(=O)CCCN(C)C)cc2C(=O)N([C@@H](C)CO)C[C@H]1C`, “inactive”.

Take `COCCNC(=O)C[C@@H]1C[C@@H]2c3cc(NC(=O)CN(C)C)ccc3O[C@@H]2[C@@H](CO)O1`: the growth inhibition call is “inactive”. To `CO[C@H](CN(C)C(=O)c1ccccc1F)[C@@H](C)CN([C@@H](C)CO)S(=O)(=O)c1ccc(Cl)cc1` belongs “inactive”; to `O=C(Nc1ccccc1)C1=C[C@@H](c2ccc3c(c2)Cc2ccccc2-3)C[C@@H](OCc2ccc(CO)cc2)O1`, “inactive”. As for `COc1ccc(NC(=O)Nc2ccc3c(c2)C(=O)N([C@H](C)CO)C[C@H](C)[C@@H](CN(C)C(=O)Nc2ccccc2)OCCCC[C@@H](C)O3)cc1`, the growth inhibition call is “inactive”. To `CC(C)CNC(=O)C(=O)NC[C@H]1OCCN1S(=O)(=O)c1ccc2c(c1)OCCO2` belongs “inactive”; to `C[C@H]1CN([C@@H](C)CO)C(=O)c2cc(NC(=O)Nc3ccc(C(F)(F)F)cc3)ccc2O[C@H]1CN(C)Cc1ccccc1`, “active”.

`CN1CCN(C(=O)C[C@H]2CC[C@H](NC(=O)Cc3ccccn3)[C@H](CO)O2)CC1`: the growth inhibition call is “inactive”. To `CN(C)CCCNC(=O)C[C@@H]1CC[C@H]2[C@@H](COc3ccc(NC(=O)NC4CCCC4)cc3C(=O)N2C)O1` belongs “inactive”; to `COc1ccc(NC(=O)Nc2ccc3c(c2)CC(=O)N([C@@H](C)CO)C[C@H](C)[C@@H](CN(C)Cc2ccc(Cl)c(Cl)c2)O3)cc1`, “inactive”; to `CO[C@@H]1CN(C)C(=O)c2ccc(NS(=O)(=O)c3ccccc3F)cc2OC[C@@H](C)N(S(C)(=O)=O)C[C@H]1C`, “inactive”. Consider `C[C@H]1CCCCO[C@@H](CN(C)S(=O)(=O)c2cccs2)[C@@H](C)CN([C@@H](C)CO)C(=O)c2cc(NC(=O)C3CCCCC3)ccc2O1`, for which the growth inhibition call is “inactive”.

`CNC(=O)CO[C@H]1COC2(CCN(C(=O)c3ccn(C)n3)CC2)C1`: the growth inhibition call is “inactive”. On to `C[C@@H]1CN([C@@H](C)CO)C(=O)c2cc(/C=C/c3ccccc3)cnc2O[C@H]1CN(C)C(=O)c1cnccn1`, for which the growth inhibition call was “inactive”. To `COCCCNC(=O)[C@@]1(Sc2ccc(C)cc2)CC(=O)N(C2CCCCC2)[C@@H]1c1ccc(CO)cc1I` belongs “inactive”; to `COc1ccc(S(=O)(=O)Nc2ccc3c(c2)C(=O)N([C@@H](C)CO)C[C@H](C)[C@H](CN(C)Cc2ccc(C(F)(F)F)cc2)OCCCC[C@H](C)O3)cc1`, “inactive”; to `CCCCCCCCCCCCCCCCCCCC(=O)N[C@H]1CC[C@@]2(C)[C@@H](C1)C[C@@H](O)[C@@H]1[C@@H]2C[C@H](O)[C@]2(C)[C@@H]([C@H](C)CCC(=O)O)CC[C@@H]12`, “inactive”. `Cc1cc(O)c2c(c1)C(=O)c1cc(O)cc(O)c1C2=O`: the growth inhibition call was “inactive”. Turning to `C[C@H](CO)N1C[C@H](C)[C@@H](CN(C)C(=O)Cc2ccccc2)OCCCC[C@H](C)Oc2ccc(NC(=O)NC3CCCCC3)cc2C1=O`, the growth inhibition call is “inactive”.

With `CCC(=O)Nc1nn2c(C)nnc2s1`, the growth inhibition call is “inactive”.

For `COc1ccc(NC(=O)Nc2ccc3c(c2)CC(=O)N([C@@H](C)CO)C[C@@H](C)[C@@H](CN(C)Cc2ccc(C(F)(F)F)cc2)O3)cc1`, the growth inhibition call is “inactive”. For the molecule `C[C@@H]1CN([C@H](C)CO)C(=O)c2cc(NC(=O)Nc3cccc4ccccc34)ccc2O[C@@H](C)CCCCO[C@@H]1CN(C)Cc1ccccc1`, the growth inhibition call is “inactive”. To `CCC(=O)N1CCC[C@H](C(=O)O)C1` belongs “inactive”; to `C[C@@H]1CCCCO[C@@H](CN(C)CC2CCCCC2)[C@H](C)CN([C@H](C)CO)C(=O)c2cc(NC(=O)NC3CCCCC3)ccc2O1`, “inactive”.

With `NC(=O)c1cccc(CN2CCOCC2)c1`, the growth inhibition call is “inactive”.

Turning to `Clc1cccc(Cc2cn3cc(-c4ccccc4)nc3s2)c1`, the growth inhibition call is “inactive”. To `C[C@@H]1CN([C@@H](C)CO)C(=O)Cc2cc(NS(C)(=O)=O)ccc2O[C@@H]1CN(C)S(=O)(=O)c1ccccc1` belongs “inactive”; to `C[C@@H]1CCCCO[C@@H](CN(C)Cc2ccc(C(=O)O)cc2)[C@@H](C)CN([C@@H](C)CO)C(=O)c2cc(NC(=O)Nc3cccc4ccccc34)ccc2O1`, “inactive”.
